Some of the results follow. The main result of the screen is listed elsewhere. These columns were measured beside it and carry no call.
What was measured:
Experiment in all cases: Primary Screen for Target Class Profiling of Small Molecule Inhibitors of Methyltransferases
[1] = molecular target: Glycine N-methyltransferase (Homo sapiens) (UniProt Q14749); settings: purified enzyme, MTase-Glo SAH luminescence; measured here: GNMT inhibition; at 40 µM; stronger effect = lower value
Method in brief: (§1)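 Each enzyme was reacted with SAM and its substrate, with compounds tested once at 40 uM; SAH formed was read by MTase-Glo luminescence.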

[2] = molecular target: Guanidinoacetate N-methyltransferase (Homo sapiens) (UniProt Q14353); settings: purified enzyme, MTase-Glo SAH luminescence; measured here: GAMT inhibition; at 40 µM; stronger effect = lower value
Method in brief: as §1

[3] = molecular target: Histamine N-methyltransferase (Homo sapiens) (UniProt P50135); settings: purified enzyme, MTase-Glo SAH luminescence; measured here: HNMT inhibition; at 40 µM; stronger effect = lower value
Method in brief: as §1

[4] = molecular target: Nicotinamide N-methyltransferase (Homo sapiens) (UniProt P40261); settings: purified enzyme, MTase-Glo SAH luminescence; measured here: NNMT inhibition; at 40 µM; stronger effect = lower value
Method in brief: as §1

[5] = molecular target: Phenylethanolamine N-methyltransferase (Homo sapiens) (UniProt P11086); settings: purified enzyme, MTase-Glo SAH luminescence; measured here: PNMT inhibition; at 40 µM; stronger effect = lower value
Method in brief: as §1
% is scaled to controls: 0 for no effect and ±100 for the full control effect.

Structure (SMILES) | activity change, negative = inhibition [1] | activity change, negative = inhibition [2] | activity change, negative = inhibition [3] | activity change, negative = inhibition [4] | activity change, negative = inhibition [5]
CCN(CC1CCN(CCc2ccccc2C)CC1)C(=O)c1csc(C)n1 | -0.551% | -0.616% | -0.865% | -1.39% | 0.227%
CC1(C(=O)NC2CCCCCC2)Cn2c(cc3sccc32)C(=O)N1CCc1ccccc1 (configuration not stated) | -2.27% | 3.04% | 0.968% | -1.99% | -4.41%
Cn1c2c(c3ccccc31)C(C(=O)NCc1ccccc1)N(c1cccc(C(F)(F)F)c1)C(=O)CS2 (configuration not stated) | 6.02% | 3.06% | 4.92% | -2.08% | 0.008%
Cc1cn(CC(=O)N[C@@H]2COCC[C@@H]2OCC2CC2)c(=O)[nH]c1=O | -4.41% | -7.91% | -2.21% | -14.6% | 8.8%
O=C(Nc1ccccc1)N1CCN(Cc2ccc3ccccc3n2)CC1 | -5.46% | 1.81% | 9.29% | -15.8% | -1.96%
COc1cc2c(cc1NS(C)(=O)=O)C(c1cccc3c1OCO3)CC(=O)N2 (configuration not stated) | -4.11% | -1.44% | -0.362% | -10.7% | 10%
CC(=O)OC[C@]12[C@H](OC(C)=O)C(=O)[C@@H]3[C@@H](OC(C)=O)[C@@]14O[C@@]3(C)COC(=O)c1cccnc1[C@@H](C)[C@H](C)C(=O)O[C@@H]([C@H](O)[C@@H]2OC(C)=O)[C@]4(C)O | 1.91% | 1.17% | 4.47% | -10.5% | -2.41%
Cc1cc(F)ccc1NC(=O)c1cc2n(n1)CC(C)(C(=O)NC1CCCCCC1)N(C)C2=O (configuration not stated) | 0.293% | 2.31% | 0.368% | -0.241% | -1.59%
COc1cc(CCC2=NN=C(NC(=O)c3ccc(N4C[C@@H](C)N[C@@H](C)C4)cc3)C2)cc(OC)c1 | -8.76% | 9.55% | -35.6% | -14.4% | -8.86%
CCOC(=O)c1ccc2c(c1)C1C=CCC1C(c1ccc(OC(C)=O)cc1OC(C)=O)N2 (configuration not stated) | -8.61% | 1.71% | -1.61% | -6.27% | -20.2%
CCn1cc(C(=O)N2CCc3cc(S(=O)(=O)NCC4CCCO4)ccc3C2)cn1 (configuration not stated) | -5.37% | 1.95% | -0.105% | 0.049% | 11.9%
Cc1ccc(NC(=O)c2ccc(CN3CC[C@H](N(C)C)C3)c(C(F)(F)F)c2)cc1Nc1nccc(-c2cncnc2)n1 | -8.39% |  | -26.3% |  | 
COc1ccc(Cn2c(C3CCN(C(=O)C4(c5ccccc5)CC4)CC3)n[nH]c2=O)cc1 | -3.65% | -3.39% | -1.75% | -2.13% | 1.97%
CC(C)CCN1CC(C(=O)NCCc2ccncc2)C2(CCOCC2)C1 (configuration not stated) | -9.73% | -16.7% | -5.1% | -14.8% | -10.6%
Cc1ccccc1Cn1nc2n(C)c(=O)c3ccc(C(=O)NC4CCCC4)cc3n2c1=O | -1.3% | 1.82% | -1.44% | -7.76% | -3.98%
Cc1ccc(NC(=O)N2CCn3cccc3C2C(C)C)c(Cl)c1 (configuration not stated) | 5.06% | 0% | -1.4% | 0.103% | 3.3%
Cc1ccc(F)c(C(=O)NC(C)c2cnn(-c3ccccc3)c2C)c1Cl (configuration not stated) | 0.148% | -4.71% | -3.37% | -9.53% | -7.38%
CNC(=O)c1cc(C2CC2)nc2onc(C3CCN([S+](=O)([O-])c4ccccc4)C3)c12 (configuration not stated) | -2.25% | -1.18% | 1.04% | -3.54% | -20.2%
CC(=O)NC[C@H]1CN(c2ccc(N3CCSCC3)c(F)c2)C(=O)O1 | -5.04% | -5.32% | 6.75% | -18.5% | 0.864%
Cc1ccc(CNC(=O)C2(C)Cn3cnc(C(=O)NCCc4ccccc4)c3C(=O)N2C2CC2)cc1 (configuration not stated) | -0.53% | 1.73% | -0.135% | -7.13% | -4.21%

Structure (SMILES) | activity change, negative = inhibition [1] | activity change, negative = inhibition [2] | activity change, negative = inhibition [3] | activity change, negative = inhibition [4] | activity change, negative = inhibition [5]
CC(C)OCCCN1C(=O)c2cc3sccc3n2CC1(C)C(=O)NC1CCCCCCC1 (configuration not stated) | -3.96% | 4.87% | -5.73% | -3.13% | -1.59%
CC(C)CCN1C(=O)c2cc3sccc3n2CC1(C)C(=O)NC1CCCCC1C (configuration not stated) | 1.51% | 0.161% | 2.41% | 2.78% | -1.14%
CCC[C@@H]1CN(C(=O)CNS(=O)(=O)c2cccs2)C[C@H]1NC(C)=O | -4.48% | -7.2% | -2.41% | -4.36% | -6.35%
O=S(=O)(NCC1CC1)c1ccc(Nc2nccc(N3CCCc4cc(O)ccc43)n2)cc1 | -13.3% | -13.5% | -42.8% | -41.8% | -20.9%
COc1ccc(-c2cc3n(n2)CC(C)(C(=O)NCc2ccccc2OC)N(CCc2ccco2)C3=O)cc1 (configuration not stated) | 4.11% | 3.44% | 8.89% | 12.3% | 2.26%
C=CCn1c(=O)c2ccc(C(=O)NC(C)C)cc2n2c(=O)n(CC(=O)Nc3ccc(C)cc3)nc12 | 5.97% | 0.376% | 6.19% | 5.83% | 7.63%
CC(C)CCn1c(=O)c2ccc(C(=O)NCC(C)C)cc2n2c(=O)n(Cc3ccc(F)cc3)nc12 | 1.69% | 0.083% | 4.57% | 3.49% | 1.67%
Cc1cc2c(c(=O)n(-c3ccc(F)cc3)c(=O)n2CC(=O)Nc2cccc(C#N)c2)n1C | -4.03% | -3.65% | -5.66% | -8.58% | -9.7%
COc1ccc(NS(=O)(=O)c2ccc3c(c2)n(C)c(=O)n3C)cc1 | -4.2% | 3.93% | 6.4% | 3.87% | -0.815%
CC1CCCCC1NC(=O)C1(C)Cn2c(nc3ccccc32)C(=O)N1Cc1cccs1 (configuration not stated) | 4.39% | 0% | 8.89% | 6.88% | 3.52%
CN1c2cccnc2CN(C(=O)Nc2cccc(C(F)(F)F)c2)CC[C@H]1CO | -0.286% | 1.54% | 1.79% | -5.15% | 3.82%
CCCC1c2ccc(C)n2CCN1C(=O)Nc1ccc(Br)c(C)c1 (configuration not stated) | -0.712% | 0.781% | -7.91% | 1.42% | -2.08%
COc1ccc(CN2CCCC3(C2)C(=NC2CCCCC2)NC(=O)N3c2cccnc2)cc1 (configuration not stated) | -9.54% | -3.23% | -2.26% | -21.6% | 1.25%
c1coc(-c2noc(CN3CCCC3c3nc(-c4ccncc4)no3)n2)c1 (configuration not stated) | -5.42% | -7.67% | -3.27% | -6.96% | 0.694%
Cc1ccc(N2C(=O)c3cc4sccc4n3CC2(C)C(=O)NC2CCCC(C)C2C)cc1C (configuration not stated) | -0.575% | 4.9% | -0.296% | -1.06% | -1.02%
CCc1ccc(CN2C(=O)c3sccc3-n3cccc3C2C(=O)NC2CCCCCC2)cc1 (configuration not stated) | -1.96% | 0.797% | 0.264% | -3.53% | 0.228%
CSc1ccc(C(=O)c2[nH]c(=O)[nH]c2C)cc1 | -11.6% | 9.31% | 6.02% | -7.68% | -0.603%
Cc1ccc(Cn2c(=O)c3ccccc3n3c(CCC(=O)NCc4ccc(F)cc4)nnc23)cc1 | -5.69% | 1.81% | -4.79% | 6.38% | -7.62%
Cc1nc(NCCC2CCOC2)c2c(C)nn(C)c2n1 (configuration not stated) | -3.06% | -3.11% | -0.469% | -6.22% | -2.29%
O=c1[nH]nc2n1CCC(NS(=O)(=O)c1ccc(Cl)s1)CC2 (configuration not stated) | 0.146% | -1.73% | 0.461% | 0.012% | 3.09%

Structure (SMILES) | activity change, negative = inhibition [1] | activity change, negative = inhibition [2] | activity change, negative = inhibition [3] | activity change, negative = inhibition [4] | activity change, negative = inhibition [5]
Cc1cccc(Cn2nc3n(Cc4ccccc4)c(=O)c4ccc(C(=O)NC5CCCC5)cc4n3c2=O)c1 | 3.69% | 0% | 4.96% | -0.692% | 2.61%
O=C(NCc1ccc(Cl)cc1)c1ccc2c(=O)[nH]c3c(C(=O)NC4CCCC4)sc(=S)n3c2c1 | -42.8% | 1.99% | -8.8% | -61.5% | -20.4%
CC(C(=O)Nc1cc(C#N)ccc1CCCC(=O)O)c1ccc(F)c2ccccc12 (configuration not stated) | -5.79% | -5.54% | 2.48% | -20.8% | 0.586%
Cc1ccc(NC(=O)Cn2c(=O)oc3cc(S(=O)(=O)N4CCCC4)ccc32)cc1 | -1.06% | 4.91% | -0.154% | 12% | -9.73%
CC1(C(=O)NC2CCCC2)Cn2c(cc3sccc32)C(=O)N1Cc1cccc(Cl)c1 (configuration not stated) | -6.12% | 3.89% | -6.47% | -9.58% | -6.55%
CCC1c2ccc(C)n2CCN1C(=O)NCc1ccc(C)cc1 (configuration not stated) | -1.93% | 3.64% | -4.13% | -1.41% | -5.8%
COc1ccccc1CN1C(=O)c2ccc(-c3ccco3)n2CC1(C)C(=O)NC1CCCCC1C (configuration not stated) | 1.85% | 0.787% | 9.05% | 3.67% | 1.05%
CCCNC(=O)CCc1ccnc(N2CCCC2)c1 | -1.59% | -5.78% | -23.4% | -9.47% | -16.8%
Cn1cnc(S(=O)(=O)N2C[C@@H](Oc3ccccc3)C[C@H]2C(=O)N2CCOCC2)c1 | -0.609% | -1.52% | 0.473% | -0.771% | -6.6%
Cc1ccc(C(=O)N2CC[C@@](C)(O)[C@@H](Cc3ccccc3)C2)cc1C | -2.18% | -3.28% | -1.06% | -11% | -0.28%
COc1cc(Nc2ncc(F)c(Nc3ccc4c(n3)NC(=O)C(C)(C)O4)n2)cc(OC)c1OC | -14.7% | -4.95% | -12% | -23.2% | -15.6%
CCCCCCc1cccc(NC(=O)[C@H](N)CCP(=O)(O)O)c1 | 2.87% | 3.56% | 13.9% | -7.79% | 6.55%
Cc1ccc(N2C(=O)c3cc(C(C)(C)C)nn3CC2(C)C(=O)NC2CCCCC2)cc1C (configuration not stated) | -13.1% | -2.29% | -5.08% | -20.3% | -3.27%
CCOc1ccc(C(=O)Cn2nc3n(C)c(=O)c4ccc(C(=O)NC5CCCCC5)cc4n3c2=O)cc1 | -4.03% | -2.84% | -2.77% | 6.51% | -1.31%
COc1ccc(C(=O)n2c(C)c(Cc3cccc(O[C@@H](C)C(=O)O)c3)c3cc(OC(F)(F)F)ccc32)cc1 | -38.6% | 5.06% | 2.31% | -37.1% | -0.929%
CCCNC(=O)c1ncn2c1C(=O)N(C1CC1)C(C)(C(=O)NCc1ccccc1OC)C2 (configuration not stated) | -3.29% | 0% | 2.06% | -3.91% | 0.084%
CC(C)OCCCn1c(=O)c2ccccc2n2c(SCc3ccc(Cl)cc3)nnc12 | -7.96% | 2.83% | 6.5% | -7.98% | 5.65%
CCOc1ccccc1NC(=O)N1Cc2c(sc3c2CCCC3)-n2cccc2C1c1cccc(OC)c1 (configuration not stated) | -7.32% | 2.7% | 0.565% | -10.5% | 1.48%
CCCC1c2ccc(C)n2CCN1C(=O)Nc1ccc(OC)cc1OC (configuration not stated) | -1.43% | 8.4% | -6.88% | 3.4% | -4.15%

Reference: PubChem BioAssay AID1745853 (National Center for Advancing Translational Sciences (NCATS), 2022)
